Data published in ChEMBL document CHEMBL4888484, “Replenishing the malaria drug discovery pipeline: Screening and hit evaluation of the MMV Hit Generation Library 1 (HGL1) against asexual blood stage Plasmodium falciparum ,using a nano luciferase reporter read-out” (2022).
Out of some 150,000 compounds screened, about 540 (0.36%) showed an effect of 50% or more. Some of the results follow.

What follows are compounds tested on Plasmodium falciparum (assay: Primary screen in NF54 nanoGlo assay, in single point, at 2uM, 72h; a lower Z score goes with more inhibition). Conditions: timepoint 72 hour.
Assay type: functional, Erythrocyte
`Cc1ncccc1OC1(C(=O)O)CCN(Cc2cccs2)CC1` was tested, and the “% Inhibition” value was -14% and the Z score was 1.22. With `N#Cc1ccccc1-c1ccc(-c2cn(Cc3ccoc3)nn2)o1` the “% Inhibition” value was -9% and the Z score was 1.79. In the case of `CC(C)c1ccc(C#N)c(-c2ccc(C(=O)N3CCc4n[nH]cc4C3)cc2)n1`, the “% Inhibition” value is reported as -11% and the Z score is reported as 1.85. For `Cc1cc(OC2CCN(C(=O)c3cccn(C)c3=O)CC2)cc(=O)n1C`, the “% Inhibition” value was -4% and the Z score was 0.69. `Cc1cc(NC(=O)C(c2ccccc2)c2ccccc2)c(O)c(-n2nc3ccccc3n2)c1` was tested, and the “% Inhibition” value was 30% and the Z score was -3.34. For `CCOc1ccc(C(=O)N2CCN(c3cc(C(C)C)n4cnnc4n3)CC2)cc1`, the “% Inhibition” value was -9% and the Z score was 1.25. For `CN(C)C(=O)N1CCN(C(=O)c2ccncc2F)C(C)(C)C1`, the “% Inhibition” value was -3% and the Z score was 0.42. In the case of `Cc1noc2c1N=C(c1ccccc1)C[C@@H](c1ccc(O)cc1)C2`, the “% Inhibition” value is reported as -6% and the Z score is reported as 0.75. With `CC(C)CCn1cc(-c2n[nH]c(C(=O)N(C)C)n2)cn1` the “% Inhibition” value was 4% and the Z score was -0.52. For `CC(C)COC1CCN(S(=O)(=O)C[C@H]2CCN(C(=O)OCc3ccccc3)C2)CC1`, the “% Inhibition” value was -1% and the Z score was 0.06. In the case of `CCO[C@H]1C[C@@H](NC(=O)Nc2c(C)noc2C)C1`, the “% Inhibition” value is reported as 33% and the Z score is reported as -3.79. In the case of `COc1ccsc1S(=O)(=O)N(C)OCc1ccccc1`, the “% Inhibition” value is reported as -12% and the Z score is reported as 2.01. In the case of `COc1cc(CC2CN(c3ncnc4cc(Cl)ccc34)C2)cc(OC)c1`, the “% Inhibition” value is reported as -1% and the Z score is reported as 0.23. In the case of `COc1ccc(C[C@@]2(CCC(=O)N3CCN(Cc4cccc(C)c4)C(=O)C3)CCC(=O)N2)c(F)c1`, the “% Inhibition” value is reported as 4% and the Z score is reported as -0.41. With `CC[C@H](C)N(Cc1ccc(OC)c(OS(=O)(=O)c2cccc(C(F)(F)F)c2)c1)C(=O)Nc1ccccc1OC` the “% Inhibition” value was -6% and the Z score was 1.07. `O=C(Cn1ccc2ccc(N3CCOCC3)nc21)N1CCN(c2cccc(Cl)c2)CC1` was tested, and the “% Inhibition” value was -18% and the Z score was 2.46. For `CCC(=O)N1CCC(NCc2cccc3[nH]ccc23)C(C)C1` (centres undefined), the “% Inhibition” value was -11% and the Z score was 1.35. With `Cc1ccc(CNC(=O)C[C@@H]2ON(C)C(=O)N2c2ccc(Cl)cc2)cc1` the “% Inhibition” value was -10% and the Z score was 1.32. `COc1ccc(NC(=O)c2cc(O)ncn2)c(OC)c1` was tested, and the “% Inhibition” value was -12% and the Z score was 1.93. In the case of `CO[C@@]12CC[C@H](O)C[C@@H]1N(C(=O)c1c[nH]c(C)cc1=O)CC2`, the “% Inhibition” value is reported as -22% and the Z score is reported as 2.79. For `O=C(NCC1CCC2(CCOCC2)C1O)c1ccsc1` (centres undefined), the “% Inhibition” value was -15% and the Z score was 2.03. `CCOC(=O)c1cc2n(n1)C[C@@](C)(C(=O)NC1CCC(C)CC1)N(Cc1cccc(C)c1)C2=O` (some centres undefined) was tested, and the “% Inhibition” value was -7% and the Z score was 1.14.
